Test results as given in the supplement of paper PMC12217912.
The list shows a part of the results. The full chains were built here from the parent and the listed change. Values near 0.05 are background.

B1: TEV protease; numbered along this chain (parent)
chain: MGESLFKGPRDYNPISSSICHLTNESDGHTTSLYGIGFGPFIITNKHLFRRNNGTLVVQSLHGVFKVKDTTTLQQHLVDGRDMIIIRMPKDFPPFPQKLKFREPQREERICLVTTNFQTKSMSSMVSDTSCTFPSGDGIFWKHWIQTKDGQCGSPLVSTRDGFIVGIHSASNFTNTNNYFTSVPKNFMELLTNQEAQQWVSGWRLNADSVLWGGHKVFMVKPEEPFQPVKEATQL

Variants of: B1
Experiment: raw area under fraction-flipped curve 0-4 h after induction (AUC4h, not background-subtracted), DNA-recorder readout of cleavage of the substrate (dimensionless); higher = more cleavage of the substrate by the protease variant
Conditions: temperature: 34 °C; time window: 0-4 h after rhamnose induction
Experimental: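 In vivo DNA recorder in E. coli TOP10(DE3) ΔrhaA at 34 °C. Each TEVp single-site mutant (parent TEVp 0) is paired with a single-site variant of the 7-mer TEVs (canonical ENLYFQ|S). The substrate sits between flexible linkers in a Bxb1-sfGFP-TEVs-SsrA fusion, so cleavage stabilises Bxb1 and speeds flipping of a recombination array, read by NGS. The value is the raw area under the fraction-flipped curve over 0-4 h after rhamnose induction (AUC4h), with ≥20 reads per time point. It is not background-subtracted; inactive controls average about 0.047.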
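Further: Bxb1 expression induced with 0.2% (w/v) L-rhamnose at OD600 near 0.5, cultures sampled hourly, flipped fraction per protease–substrate barcode pair counted by paired-end Illumina sequencing.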

Variant | area with substrate ENLYFCS | area with substrate ENLYFES | area with substrate ENLYFHS | area with substrate ENLYFIS | area with substrate ENLYFLS | area with substrate ENLYFPS | area with substrate ENLYFRS | area with substrate ENLYFWS | area with substrate ENLYFFS | area with substrate ENLYFNS | area with substrate ENLYFKS | area with substrate ENLYFMS | area with substrate ENLYFVS | area with substrate ENLYFDS | area with substrate ENLYFSS | area with substrate ENLYFTS | area with substrate ENLYFYS | area with substrate ENLYFGS
T132R | 0.0618 | 0.0548 | 0.055 | 0.0262 | 0.0528 | 0.0489 | 0.0509 | 0.0537 | – | – | – | – | – | – | – | – | – | –
K66V | 0.0455 | – | 0.0304 | 0.0583 | 0.0629 | – | 0.0869 | 0.0573 | 0.0571 | 0.0897 | – | – | – | – | – | – | – | –
M83I | 0.0516 | – | 0.0645 | 0.0522 | – | – | 0.0603 | 0.0609 | 0.0586 | – | 0.0407 | 0.0648 | 0.0591 | – | – | – | – | –
G28N | 0.0533 | 0.0696 | 0.0818 | 0.0562 | 0.0708 | 0.0592 | 0.0676 | – | 0.0617 | 0.0678 | 0.0577 | – | 0.0446 | 0.0553 | 0.0643 | 0.0535 | 0.0648 | –
N52H | 0.0526 | 0.0438 | 0.0491 | 0.0552 | – | 0.081 | 0.0608 | – | – | 0.0614 | 0.0646 | 0.0479 | – | – | – | – | – | 0.0652
P155C | 0.0624 | 0.0637 | 0.0838 | 0.0544 | – | 0.0457 | 0.049 | 0.0409 | – | 0.0543 | 0.0549 | 0.0631 | – | – | 0.0473 | 0.0494 | – | 0.0266
Y34Q | 0.0547 | – | 0.0345 | – | – | 0.0786 | – | 0.0589 | – | – | 0.0736 | 0.0328 | – | – | – | – | 0.067 | –
Y34F | 0.0612 | 0.0354 | – | 0.0607 | – | 0.0482 | 0.0734 | – | – | 0.0611 | 0.0576 | 0.0834 | – | 0.0615 | 0.0587 | 0.0579 | 0.0869 | –
I85D | 0.0462 | 0.0604 | 0.0621 | 0.0409 | – | 0.0206 | 0.0593 | 0.034 | 0.0418 | – | 0.0523 | 0.057 | – | – | – | 0.0402 | – | –
K148I | 0.0494 | 0.0484 | 0.0546 | 0.0613 | – | – | – | 0.0503 | – | 0.0523 | 0.0684 | – | – | – | – | – | 0.052 | –
D69C | 0.0583 | 0.0548 | 0.07 | 0.0487 | 0.0539 | – | 0.0655 | 0.0623 | 0.0369 | 0.0439 | 0.0643 | – | – | 0.0511 | – | 0.0499 | 0.0605 | 0.0603
I19C | 0.0455 | 0.0635 | 0.0444 | 0.0543 | – | 0.0639 | 0.0477 | 0.056 | 0.0641 | 0.0716 | 0.0558 | – | 0.0468 | 0.034 | – | 0.0457 | 0.0496 | –
Q151P | 0.0598 | – | – | 0.0599 | – | 0.0591 | – | – | – | 0.0536 | 0.0602 | 0.0417 | – | 0.0666 | – | 0.0607 | 0.0603 | –
E108I | 0.072 | 0.0539 | – | 0.072 | 0.0517 | 0.0534 | – | 0.0418 | 0.0657 | 0.062 | 0.0391 | 0.0782 | 0.058 | 0.0539 | 0.0637 | 0.0542 | 0.018 | –
E108S | 0.0508 | 0.0606 | 0.0481 | 0.0409 | – | 0.0441 | – | – | 0.0602 | – | 0.0674 | 0.0539 | 0.0551 | – | 0.0641 | – | 0.0405 | –
F140A | 0.0662 | 0.0378 | – | 0.0668 | – | 0.0563 | 0.0637 | – | – | 0.0626 | – | – | – | – | – | – | 0.0611 | –

Variant | area with substrate ENLYFCS | area with substrate ENLYFES | area with substrate ENLYFHS | area with substrate ENLYFIS | area with substrate ENLYFLS | area with substrate ENLYFPS | area with substrate ENLYFRS | area with substrate ENLYFWS | area with substrate ENLYFFS | area with substrate ENLYFNS | area with substrate ENLYFKS | area with substrate ENLYFMS | area with substrate ENLYFVS | area with substrate ENLYFDS | area with substrate ENLYFSS | area with substrate ENLYFTS | area with substrate ENLYFYS | area with substrate ENLYFGS
R81L | 0.053 | 0.0677 | – | 0.0659 | 0.0257 | 0.0679 | 0.0663 | 0.0419 | 0.0798 | 0.0414 | – | 0.0695 | 0.0517 | – | – | 0.0486 | 0.0536 | –
T114V | 0.0679 | 0.0491 | – | 0.0579 | – | 0.0512 | 0.0528 | – | 0.0556 | 0.0389 | 0.0652 | 0.0631 | 0.0738 | – | – | 0.0472 | – | 0.0676
T44Y | 0.0352 | 0.053 | 0.0556 | 0.0291 | – | 0.0416 | 0.0374 | 0.0553 | 0.0511 | 0.0443 | 0.0357 | – | 0.0355 | 0.0422 | 0.0459 | 0.0401 | – | 0.0437
T44C | 0.069 | 0.0768 | 0.0587 | 0.0534 | – | 0.0706 | 0.0554 | 0.0535 | 0.0701 | – | 0.0734 | 0.0509 | – | – | 0.0539 | 0.0687 | 0.0557 | 0.0713
S127Y | 0.0633 | – | – | 0.0494 | 0.0498 | – | 0.0756 | 0.0584 | – | – | – | 0.0584 | – | – | 0.06 | – | – | –
G8V | 0.0873 | – | 0.0639 | – | 0.0653 | – | – | – | – | – | – | 0.089 | – | – | – | – | – | –
R102D | 0.0534 | 0.04 | 0.0286 | – | 0.0378 | 0.0554 | 0.0813 | – | 0.0489 | 0.0485 | – | 0.0429 | – | 0.0317 | 0.0545 | 0.0552 | – | –
W141Q | 0.0586 | 0.0529 | – | 0.0547 | 0.0518 | 0.0445 | 0.0469 | 0.0633 | 0.0577 | – | 0.0324 | 0.0671 | – | – | 0.0511 | 0.0648 | 0.0449 | –
S130C | 0.0615 | – | – | – | – | – | – | – | – | – | – | 0.0591 | 0.0563 | 0.0566 | 0.0584 | 0.0638 | – | –
Y12D | 0.057 | 0.0657 | – | 0.046 | – | 0.051 | 0.0535 | – | 0.0593 | 0.0594 | 0.0538 | 0.0403 | 0.0544 | 0.0405 | – | 0.0753 | – | –
Y12E | 0.065 | 0.0751 | 0.0198 | 0.0578 | 0.058 | 0.0514 | 0.0584 | 0.0515 | 0.068 | – | 0.0567 | 0.0595 | 0.0753 | 0.0568 | 0.0508 | 0.0657 | 0.0675 | 0.0684
D82Q | 0.0661 | 0.0542 | 0.0731 | 0.059 | 0.0599 | 0.0641 | – | – | – | 0.0784 | – | 0.047 | 0.0655 | – | – | 0.0453 | – | –
K98E | 0.0746 | – | – | 0.0464 | – | 0.0739 | – | 0.0644 | 0.0682 | 0.0674 | – | – | – | 0.0594 | – | 0.0595 | 0.0533 | –
S26G | 0.0674 | 0.0672 | – | 0.0483 | – | – | – | – | 0.0753 | – | – | 0.0565 | 0.0554 | 0.0477 | – | – | – | –
V126R | 0.0616 | – | – | 0.062 | 0.0566 | 0.0586 | 0.0683 | 0.0553 | 0.0678 | 0.0404 | 0.064 | 0.0543 | 0.0571 | 0.0577 | – | 0.0611 | 0.065 | –
